Measured values: publication PMC7819943, “Rice protein-binding microarrays: a tool to detect cis-acting elements near promoter regions in rice”
The other results are listed elsewhere or left out.

Target: T1, OsWOX13 (Oryza sativa, UniProt Q5QMM3 1-267)
T1 sequence: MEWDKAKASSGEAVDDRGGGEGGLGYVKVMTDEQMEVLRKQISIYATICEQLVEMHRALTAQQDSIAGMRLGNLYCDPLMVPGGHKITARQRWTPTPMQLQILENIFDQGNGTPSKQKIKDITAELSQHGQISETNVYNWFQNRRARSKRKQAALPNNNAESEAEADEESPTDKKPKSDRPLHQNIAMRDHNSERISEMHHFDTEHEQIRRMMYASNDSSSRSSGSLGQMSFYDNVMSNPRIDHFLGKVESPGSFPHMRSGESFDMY
Test: protein-binding microarray (RPBM); PBS, 2% BSA, 51.3 ng/ul salmon testes DNA, 50 uM zinc acetate, 200 nM TF, 25 C, 1 h; high values mean tight binding
Settings: protein: recombinant; tags: N-terminal polyhistidine and DsRed monomer fusion (pET32a); label: CyDye5-dUTP incorporated in the synthesized complementary strand; 3' TTTTT single-stranded linker to array surface; dsDNA, one strand shown
In short: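 Transcription factors were made in E. coli BL21-CodonPlus as N-terminal fusions to a polyhistidine tag and DsRed, then purified on Ni–NTA. After primer extension with Cy5-dUTP and blocking with 2% BSA, a custom Agilent array was exposed for 1 h at 25 °C to 200 nM protein in PBS, 2% BSA, salmon testes DNA and 50 µM zinc acetate. Washed arrays were scanned on an Axon 4000B, and the binding signal is per-feature fluorescence intensity in arbitrary units.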

Sequence | binding signal
GACTTTTCTGAGTGACAATCAAACTAGCTAGCACACATTTCGGAGTCACCTAGTGCAG | 6220 fluorescence intensity (a.u.)
CCATAACACAAATTTAACGCTCATAAAATTTCAAATTAGTCGGAGTCACCTAGTGCAG | 3640 fluorescence intensity (a.u.)
GGATCCAATCAGAACACAGTTGCTAGCTGTGAATGTCAAACGGAGTCACCTAGTGCAG | 5360 fluorescence intensity (a.u.)
GACAAAATTGACAGTCTCTCAGGATACATACTGACTGCAACGGAGTCACCTAGTGCAG | 42000 fluorescence intensity (a.u.)
TTATAAATATGATAGATAGAAATGTTGAAATATTGTGGAACGGAGTCACCTAGTGCAG | 8720 fluorescence intensity (a.u.)
GTTTGTGATTAATCTGATTTCGTACTATTAACGTGCAACTCGGAGTCACCTAGTGCAG | 31300 fluorescence intensity (a.u.)
TAACTTACTGATTGGACAATATTGCAGAACGTCCACTCCGCGGAGTCACCTAGTGCAG | 27900 fluorescence intensity (a.u.)
TCAAATTTTGATAGATTTTGGTAAGGTTGCAATGGTAAAACGGAGTCACCTAGTGCAG | 20400 fluorescence intensity (a.u.)
ATTTTCTTCCCAACCAATCACAACTCTCCACCATTCACTTCGGAGTCACCTAGTGCAG | 3400 fluorescence intensity (a.u.)
TTTCTGATAATGGAATGATGAAATCATGTATCATACCCATCGGAGTCACCTAGTGCAG | 9080 fluorescence intensity (a.u.)
CCCGATTTAAATCTAGATTGTTCTGCCTTGTTATGTCAGACGGAGTCACCTAGTGCAG | 28900 fluorescence intensity (a.u.)
TTCACAAATTGGCCATCTTATTCTTTTCGTAGCGTGCAAACGGAGTCACCTAGTGCAG | 10200 fluorescence intensity (a.u.)
ATTCCACGGTCAAATCTTGAGATTGACGAATTCACGACAACGGAGTCACCTAGTGCAG | 5440 fluorescence intensity (a.u.)
TTTGATATGATAGAAGCCCAACCTAATATGTATGAAACATCGGAGTCACCTAGTGCAG | 7740 fluorescence intensity (a.u.)
CCTCTTGATTGATTGCTCGGTCGACTGATTGCTTCTTACACGGAGTCACCTAGTGCAG | 65000 fluorescence intensity (a.u.)
GCAGCAGAAGCACGGGGATGATTGGCCAGATCGGGTTAGGCGGAGTCACCTAGTGCAG | 3150 fluorescence intensity (a.u.)
TGTAAATGATGCTTCTATTTTACTTGAGTTCATTATGAGGCGGAGTCACCTAGTGCAG | 3290 fluorescence intensity (a.u.)
TCTCGCCTCTGCTCGTTTTGATTGCCAATTGGGCTTGGATCGGAGTCACCTAGTGCAG | 7480 fluorescence intensity (a.u.)
GATTAATTAGGCTTAATAAATTCGTCTCACGTTTACTGACCGGAGTCACCTAGTGCAG | 39300 fluorescence intensity (a.u.)
CTTGACGGGCTTTCATTAAAGGCCTGGCCCAACCCATCACCGGAGTCACCTAGTGCAG | 3550 fluorescence intensity (a.u.)
GAAATCAGCCGCCAAGATTACACTTTAATTTGGCGGTTCACGGAGTCACCTAGTGCAG | 4820 fluorescence intensity (a.u.)
CTATAGTCAATTTAATAATCAATTCATACAATAATTACCTCGGAGTCACCTAGTGCAG | 22300 fluorescence intensity (a.u.)
TCTAATTTACAACATTGATTTTGTTTAACAAAACGCTAGACGGAGTCACCTAGTGCAG | 29900 fluorescence intensity (a.u.)
TATGGGAATAAGGGATGCCAATCAACTTGACGTAAAGTTACGGAGTCACCTAGTGCAG | 3450 fluorescence intensity (a.u.)
TTATGATTATTTTAGAATTTTCAAAATCATGGAATATAATCGGAGTCACCTAGTGCAG | 7490 fluorescence intensity (a.u.)
TTTTCAGATAATTAACACAACACAGCTCACGGTTTCGTCTCGGAGTCACCTAGTGCAG | 7280 fluorescence intensity (a.u.)
ATAAAATATATGATTTGCTATTCATACTAATAAAATACAACGGAGTCACCTAGTGCAG | 3770 fluorescence intensity (a.u.)

Sequence | binding signal
AGTTTGATGATAAAAGATGGAGATACGTTTGATTTATGATCGGAGTCACCTAGTGCAG | 3330 fluorescence intensity (a.u.)
CATCTGATTACTCCATGCTCTCAAATCGTAACCTCCAACACGGAGTCACCTAGTGCAG | 13800 fluorescence intensity (a.u.)
AGCCAATCAAAGGCACACGTAGGACGAGACCCCATCCAACCGGAGTCACCTAGTGCAG | 10500 fluorescence intensity (a.u.)
GCGTGATTAATCATGGCCATTAACTACCAGTTGCAGATTGCGGAGTCACCTAGTGCAG | 34900 fluorescence intensity (a.u.)
GTGCAAATTGTCCATTGACCCATACAAAGGAGATTGTTCTCGGAGTCACCTAGTGCAG | 3470 fluorescence intensity (a.u.)
TCGGTAAATTATTCGAGCCATTCCTCTTCAAGTTCTCCCACGGAGTCACCTAGTGCAG | 3660 fluorescence intensity (a.u.)
GTTAACAATTTACTATTATGGATATCTGATGACAATACCACGGAGTCACCTAGTGCAG | 8390 fluorescence intensity (a.u.)
CATTCTAATTAACTCTAAATGAGTGAATTGCACTTTGTGCCGGAGTCACCTAGTGCAG | 28500 fluorescence intensity (a.u.)
TCCACATCCAATTAACAGCGGGCACAAGCTAGCCCTCGATCGGAGTCACCTAGTGCAG | 7390 fluorescence intensity (a.u.)
CTTTAATTTGAAGGAAATATATATGAATGTTGGAGGATATCGGAGTCACCTAGTGCAG | 10300 fluorescence intensity (a.u.)
GCAGTGATTAGCATCATTATGCTTATGGAATGCAAAATCCCGGAGTCACCTAGTGCAG | 35400 fluorescence intensity (a.u.)
TTGATAGGATACGGGATAAGTGATTTATTATCTGATACCACGGAGTCACCTAGTGCAG | 9640 fluorescence intensity (a.u.)
TGTTTAATTATTCCTGCAAAACAAAGGGGAAAGTGCCTGTCGGAGTCACCTAGTGCAG | 7130 fluorescence intensity (a.u.)
ATTTAATAACTAAATTTGATACCTCAAATGAATCAGTCAACGGAGTCACCTAGTGCAG | 7340 fluorescence intensity (a.u.)
TTAACTATCCAATTTGCGCAAATGATCTCAGCTCAGCAGCCGGAGTCACCTAGTGCAG | 8660 fluorescence intensity (a.u.)
ATGATTGATGTCTTTTATTTTCTTTGTACTAAGGAGCTTGCGGAGTCACCTAGTGCAG | 62700 fluorescence intensity (a.u.)
GTAAATATTCGTTTGATTTGTACATATTAATCGTGCAGCTCGGAGTCACCTAGTGCAG | 8330 fluorescence intensity (a.u.)
GTTGTTCAATCATTCAACCCAAATAAACCACCCGACTAGACGGAGTCACCTAGTGCAG | 12700 fluorescence intensity (a.u.)
TGAGCCTAATTAATCCATCATTAACACAAACACATGTGGGCGGAGTCACCTAGTGCAG | 20700 fluorescence intensity (a.u.)
TTGAACGATTGTCAATCAGTAGTTTAGTACTTCCATATGTCGGAGTCACCTAGTGCAG | 31400 fluorescence intensity (a.u.)
AAACTCAGTATCATGAATGATTGGTGTAACCGTGTAAGTGCGGAGTCACCTAGTGCAG | 11100 fluorescence intensity (a.u.)
ACACACATTATTAACTTATCCCGATACAAATAGATTTAGACGGAGTCACCTAGTGCAG | 3160 fluorescence intensity (a.u.)
ATTACTAATAATTGCTATATGTTAATCTTTAGATACTTGACGGAGTCACCTAGTGCAG | 15100 fluorescence intensity (a.u.)
ACATTTTAATGGAAATAAACATTTACTTATTTCTCATGTGCGGAGTCACCTAGTGCAG | 7630 fluorescence intensity (a.u.)
TTATACAGTTTACATGTAAATCACGAGAAGAATCTTTTGACGGAGTCACCTAGTGCAG | 4050 fluorescence intensity (a.u.)
GTAACAATCACATTACAAATCAGAGGCAACAGATTACAAGCGGAGTCACCTAGTGCAG | 19800 fluorescence intensity (a.u.)
TTACAAATGATACCATAAATTAAATAACACATCGATGTCTCGGAGTCACCTAGTGCAG | 3280 fluorescence intensity (a.u.)
